Measurements: the supplement of paper PMC11876631
± gives the standard deviation of the averaged measurements. Laboratory Escherichia coli strains with one amino-acid change in an essential protein, pooled on minimal glucose agar with carbenicillin or gentamicin at twice the control MIC (plus kanamycin and chloramphenicol for the plasmids), 48 h. Fold change of barcode share against drug-free plates; higher = less susceptible. Active = above 20 in both replicates (the paper's putatively resistant). '<' = one read or none on drug, '>' = one read or none on a drug-free plate. Shares are relative, so most strains fall below 1 when a few take over. Listed are strains with at least 15 reads on both drug-free plates, and hits; most hits rest on fewer reference reads. Replicate rank correlation about 0.5. Edits are read from barcodes.

B1: fabA M141W (protein)
chain: MVDKRESYTKEDLLASGRGELFGAKGPQLPAPNMLMMDRVVKMTETGGNFDKGYVEAELDINPDLWFFGCHFIGDPVMPGCLGLDAMWQLVGFYLGWLGGEGKGRALGVGEVKFTGQVLPTAKKVTYRIHFKRIVNRRLIWGLADGEVLVDGRLIYTASDLKVGLFQDTSAF
B2: fabA M141P (protein)
chain: MVDKRESYTKEDLLASGRGELFGAKGPQLPAPNMLMMDRVVKMTETGGNFDKGYVEAELDINPDLWFFGCHFIGDPVMPGCLGLDAMWQLVGFYLGWLGGEGKGRALGVGEVKFTGQVLPTAKKVTYRIHFKRIVNRRLIPGLADGEVLVDGRLIYTASDLKVGLFQDTSAF
B3: fabA M141Q (protein)
chain: MVDKRESYTKEDLLASGRGELFGAKGPQLPAPNMLMMDRVVKMTETGGNFDKGYVEAELDINPDLWFFGCHFIGDPVMPGCLGLDAMWQLVGFYLGWLGGEGKGRALGVGEVKFTGQVLPTAKKVTYRIHFKRIVNRRLIQGLADGEVLVDGRLIYTASDLKVGLFQDTSAF
B4: fabB L9A (protein)
chain: MKRAVITGAGIVSSIGNNQQEVLASLREGRSGITFSQELKDSGMRSHVWGNVKLDTTGLIDRKVVRFMSDASIYAFLSMEQAIADAGLSPEAYQNNPRVGLIAGSGGGSPRFQVFGADAMRGPRGLKAVGPYVVTKAMASGVSACLATPFKIHGVNYSISSACATSAHCIGNAVEQIQLGKQDIVFAGGGEELCWEMACEFDAMGALSTKYNDTPEKASRTYDAHRDGFVIAGGGGMVVVEELEHALARGAHIYAEIVGYGATSDGADMVAPSGEGAVRCMKMAMHGVDTPIDYLNSHGTSTPVGDVKELAAIREVFGDKSPAISATKAMTGHSLGAAGVQEAIYSLLMLEHGFIAPSINIEELDEQAAGLNIVTETTDRELTTVMSNSFGFGGTNATLVMRKLKD
B5: fabB V12W (protein)
chain: MKRAVITGLGIWSSIGNNQQEVLASLREGRSGITFSQELKDSGMRSHVWGNVKLDTTGLIDRKVVRFMSDASIYAFLSMEQAIADAGLSPEAYQNNPRVGLIAGSGGGSPRFQVFGADAMRGPRGLKAVGPYVVTKAMASGVSACLATPFKIHGVNYSISSACATSAHCIGNAVEQIQLGKQDIVFAGGGEELCWEMACEFDAMGALSTKYNDTPEKASRTYDAHRDGFVIAGGGGMVVVEELEHALARGAHIYAEIVGYGATSDGADMVAPSGEGAVRCMKMAMHGVDTPIDYLNSHGTSTPVGDVKELAAIREVFGDKSPAISATKAMTGHSLGAAGVQEAIYSLLMLEHGFIAPSINIEELDEQAAGLNIVTETTDRELTTVMSNSFGFGGTNATLVMRKLKD
B6: fabB I102Q (protein)
chain: MKRAVITGLGIVSSIGNNQQEVLASLREGRSGITFSQELKDSGMRSHVWGNVKLDTTGLIDRKVVRFMSDASIYAFLSMEQAIADAGLSPEAYQNNPRVGLQAGSGGGSPRFQVFGADAMRGPRGLKAVGPYVVTKAMASGVSACLATPFKIHGVNYSISSACATSAHCIGNAVEQIQLGKQDIVFAGGGEELCWEMACEFDAMGALSTKYNDTPEKASRTYDAHRDGFVIAGGGGMVVVEELEHALARGAHIYAEIVGYGATSDGADMVAPSGEGAVRCMKMAMHGVDTPIDYLNSHGTSTPVGDVKELAAIREVFGDKSPAISATKAMTGHSLGAAGVQEAIYSLLMLEHGFIAPSINIEELDEQAAGLNIVTETTDRELTTVMSNSFGFGGTNATLVMRKLKD
B7: fabB V12A (protein)
chain: MKRAVITGLGIASSIGNNQQEVLASLREGRSGITFSQELKDSGMRSHVWGNVKLDTTGLIDRKVVRFMSDASIYAFLSMEQAIADAGLSPEAYQNNPRVGLIAGSGGGSPRFQVFGADAMRGPRGLKAVGPYVVTKAMASGVSACLATPFKIHGVNYSISSACATSAHCIGNAVEQIQLGKQDIVFAGGGEELCWEMACEFDAMGALSTKYNDTPEKASRTYDAHRDGFVIAGGGGMVVVEELEHALARGAHIYAEIVGYGATSDGADMVAPSGEGAVRCMKMAMHGVDTPIDYLNSHGTSTPVGDVKELAAIREVFGDKSPAISATKAMTGHSLGAAGVQEAIYSLLMLEHGFIAPSINIEELDEQAAGLNIVTETTDRELTTVMSNSFGFGGTNATLVMRKLKD
B8: fabB L9W (protein)
chain: MKRAVITGWGIVSSIGNNQQEVLASLREGRSGITFSQELKDSGMRSHVWGNVKLDTTGLIDRKVVRFMSDASIYAFLSMEQAIADAGLSPEAYQNNPRVGLIAGSGGGSPRFQVFGADAMRGPRGLKAVGPYVVTKAMASGVSACLATPFKIHGVNYSISSACATSAHCIGNAVEQIQLGKQDIVFAGGGEELCWEMACEFDAMGALSTKYNDTPEKASRTYDAHRDGFVIAGGGGMVVVEELEHALARGAHIYAEIVGYGATSDGADMVAPSGEGAVRCMKMAMHGVDTPIDYLNSHGTSTPVGDVKELAAIREVFGDKSPAISATKAMTGHSLGAAGVQEAIYSLLMLEHGFIAPSINIEELDEQAAGLNIVTETTDRELTTVMSNSFGFGGTNATLVMRKLKD
B9: fabB V12D (protein)
chain: MKRAVITGLGIDSSIGNNQQEVLASLREGRSGITFSQELKDSGMRSHVWGNVKLDTTGLIDRKVVRFMSDASIYAFLSMEQAIADAGLSPEAYQNNPRVGLIAGSGGGSPRFQVFGADAMRGPRGLKAVGPYVVTKAMASGVSACLATPFKIHGVNYSISSACATSAHCIGNAVEQIQLGKQDIVFAGGGEELCWEMACEFDAMGALSTKYNDTPEKASRTYDAHRDGFVIAGGGGMVVVEELEHALARGAHIYAEIVGYGATSDGADMVAPSGEGAVRCMKMAMHGVDTPIDYLNSHGTSTPVGDVKELAAIREVFGDKSPAISATKAMTGHSLGAAGVQEAIYSLLMLEHGFIAPSINIEELDEQAAGLNIVTETTDRELTTVMSNSFGFGGTNATLVMRKLKD
B10: fabB L9Q (protein)
chain: MKRAVITGQGIVSSIGNNQQEVLASLREGRSGITFSQELKDSGMRSHVWGNVKLDTTGLIDRKVVRFMSDASIYAFLSMEQAIADAGLSPEAYQNNPRVGLIAGSGGGSPRFQVFGADAMRGPRGLKAVGPYVVTKAMASGVSACLATPFKIHGVNYSISSACATSAHCIGNAVEQIQLGKQDIVFAGGGEELCWEMACEFDAMGALSTKYNDTPEKASRTYDAHRDGFVIAGGGGMVVVEELEHALARGAHIYAEIVGYGATSDGADMVAPSGEGAVRCMKMAMHGVDTPIDYLNSHGTSTPVGDVKELAAIREVFGDKSPAISATKAMTGHSLGAAGVQEAIYSLLMLEHGFIAPSINIEELDEQAAGLNIVTETTDRELTTVMSNSFGFGGTNATLVMRKLKD
B11: fabB V12Q (protein)
chain: MKRAVITGLGIQSSIGNNQQEVLASLREGRSGITFSQELKDSGMRSHVWGNVKLDTTGLIDRKVVRFMSDASIYAFLSMEQAIADAGLSPEAYQNNPRVGLIAGSGGGSPRFQVFGADAMRGPRGLKAVGPYVVTKAMASGVSACLATPFKIHGVNYSISSACATSAHCIGNAVEQIQLGKQDIVFAGGGEELCWEMACEFDAMGALSTKYNDTPEKASRTYDAHRDGFVIAGGGGMVVVEELEHALARGAHIYAEIVGYGATSDGADMVAPSGEGAVRCMKMAMHGVDTPIDYLNSHGTSTPVGDVKELAAIREVFGDKSPAISATKAMTGHSLGAAGVQEAIYSLLMLEHGFIAPSINIEELDEQAAGLNIVTETTDRELTTVMSNSFGFGGTNATLVMRKLKD
B12: fabB I170A (protein)
chain: MKRAVITGLGIVSSIGNNQQEVLASLREGRSGITFSQELKDSGMRSHVWGNVKLDTTGLIDRKVVRFMSDASIYAFLSMEQAIADAGLSPEAYQNNPRVGLIAGSGGGSPRFQVFGADAMRGPRGLKAVGPYVVTKAMASGVSACLATPFKIHGVNYSISSACATSAHCAGNAVEQIQLGKQDIVFAGGGEELCWEMACEFDAMGALSTKYNDTPEKASRTYDAHRDGFVIAGGGGMVVVEELEHALARGAHIYAEIVGYGATSDGADMVAPSGEGAVRCMKMAMHGVDTPIDYLNSHGTSTPVGDVKELAAIREVFGDKSPAISATKAMTGHSLGAAGVQEAIYSLLMLEHGFIAPSINIEELDEQAAGLNIVTETTDRELTTVMSNSFGFGGTNATLVMRKLKD
B13: argA L400Q (protein)
chain: MVKERKTELVEGFRHSVPYINTHRGKTFVIMLGGEAIEHENFSSIVNDIGLLHSLGIRLVVVYGARPQIDANLAAHHHEPLYHKNIRVTDAKTLELVKQAAGTLQLDITARLSMSLNNTPLQGAHINVVSGNFIIAQPLGVDDGVDYCHSGRIRRIDEDAIHRQLDSGAIVLMGPVAVSVTGESFNLTSEEIATQLAIKLKAEKMIGFCSSQGVTNDDGDIVSELFPNEAQARVEAQEEKGDYNSGTVRFLRGAVKACRSGVRRCHLISYQEDGALLQELFSRDGIGTQIVMESAEQIRRATINDIGGILELIRPLEQQGILVRRSREQLEMEIDKFTIIQRDNTTIACAALYPFPEEKIGEMACVAVHPDYRSSSRGEVLLERIAAQAKQSGLSKLFVQTTRSIHWFQERGFTPVDIDLLPESKKQLYNYQRKSKVLMADLG

target: Escherichia coli (laboratory strain); assay: barcode share on antibiotic plates over drug-free plates; higher = less susceptible; settings: antibiotic: carbenicillin; 2× MIC (3.1 µg/mL)
Description: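 A pool of E. coli strains, each edited to carry one amino-acid change in an essential protein, was grown for 48 h on minimal glucose agar with or without antibiotic; strain barcodes were sequenced; mean of two replicates.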

Protein | fold change of barcode share
B1 | 0.432 ± 0.17
B2 | 0.226 ± 0.11
B3 | 0.245 ± 0.031
B4 | 0.136 ± 0.038
B5 | 0.505 ± 0.26
B6 | 0.25 ± 0.13
B7 | 0.265 ± 0.013
B8 | 0.308 ± 0.095
B9 | 0.12 ± 0.056
B10 | 0.202 ± 0.068
B11 | 0.285 ± 0.16
B12 | 0.473 ± 0.26
B13 | 0.4474 ± 0.00065

same assay, conditions: antibiotic: gentamicin; 2× MIC (MIC 0.45 µg/mL)

Protein | fold change of barcode share
B1 | 0.0061 ± 0.002
B3 | 0.0155 ± 0.019
B4 | 1.86 ± 2.1
B5 | 0.217 ± 0.29
B7 | 0.24 ± 0.3
B8 | 0.0845 ± 0.091
B10 | 0.517 ± 0.59
B11 | 0.078 ± 0.079
B12 | 0.0132 ± 0.007
B13 | < 0.0077
